Test results: the supplement of paper PMC4604168 (melanoma cell lines)
The other results are listed elsewhere or left out. Most values come without repeats; read them as rough.

Assays:
Test in all cases: cell count relative to DMSO control; melanoma cells; higher = more viable cells
Settings in all cases: library dose: standard library concentration; 72 h; first compound 2 µM
G361 = test system: G361
IPC-298 = test system: IPC-298
IST-MEL1 = test system: IST-MEL1
LB2518-MEL = test system: LB2518-MEL
LOXIMVI = test system: LOXIMVI
MEL-HO = test system: MEL-HO
MZ2-MEL = test system: MZ2-MEL
MeWo = test system: MeWo
RPMI7951 = test system: RPMI7951
RVH-421 = test system: RVH-421
SkMel28 = test system: SkMel28
SkMel2 = test system: SkMel2
SkMel30 = test system: SkMel30
SkMel5 = test system: SkMel5
UACC257 = test system: UACC257
UACC62 = test system: UACC62
WM115 = test system: WM115
WM1716 = test system: WM1716
WM1745 = test system: WM1745
WM3526 = test system: WM3526
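Also: cells treated in 1,536-well plates, then fixed and DAPI-stained, with nuclei counted from automated high-throughput microscope images.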

Cn1sc(=O)n(Cc2ccccc2)c1=O + Cn1c(Nc2ccc(C(F)(F)F)cc2)nc2cc(Oc3ccnc(-c4ncc(C(F)(F)F)[nH]4)c3)ccc21 [CHIR265] (partner dose 0.4 µM)
cell count (G361): 28.3% | cell count (IPC-298): 43.9% | cell count (IST-MEL1): 81.6% | cell count (LB2518-MEL): 42.8% | cell count (LOXIMVI): 85.5% | cell count (MEL-HO): 58.3% | cell count (MZ2-MEL): 62.5% | cell count (MeWo): 71.1% | cell count (RPMI7951): 37.1% | cell count (RVH-421): 57% | cell count (SkMel28): 30.3% | cell count (SkMel2): 54.7% | cell count (SkMel30): 73.5% | cell count (SkMel5): 34.2% | cell count (UACC257): 70.7% | cell count (UACC62): 40.2% | cell count (WM115): 34.7% | cell count (WM1716): 70.4% | cell count (WM1745): 62.1% | cell count (WM3526): 45.3%

C[C@@H](N)c1ccc(C(=O)Nc2ccnc3[nH]ccc23)cc1 + CS(=O)(=O)c1ccc(C(=O)Nc2ccc(Cl)c(-c3ccccn3)c2)c(Cl)c1 [vismodegib] (partner dose 5 µM)
cell count (G361): 79.5% | cell count (IPC-298): 107% | cell count (IST-MEL1): 93.9% | cell count (LB2518-MEL): 138% | cell count (LOXIMVI): 81.4% | cell count (MEL-HO): 61.4% | cell count (MZ2-MEL): 48.3% | cell count (MeWo): 73.5% | cell count (RPMI7951): 45.7% | cell count (RVH-421): 103% | cell count (SkMel28): 85.5% | cell count (SkMel2): 81.5% | cell count (SkMel30): 87.3% | cell count (SkMel5): 69.4% | cell count (UACC257): 41.9% | cell count (UACC62): 66.6% | cell count (WM115): 91.1% | cell count (WM1716): 48.4% | cell count (WM1745): 65.6% | cell count (WM3526): 73.8%

Cn1sc(=O)n(Cc2ccccc2)c1=O + NC(=O)c1ccc(N(C(N)=O)c2c(F)cccc2F)nc1-c1ccc(F)cc1F [VX702] (partner dose 2 µM)
cell count (G361): 89.3% | cell count (IPC-298): 101% | cell count (IST-MEL1): 103% | cell count (LB2518-MEL): 112% | cell count (LOXIMVI): 94% | cell count (MEL-HO): 99.3% | cell count (MZ2-MEL): 111% | cell count (MeWo): 92.9% | cell count (RPMI7951): 68.1% | cell count (RVH-421): 110% | cell count (SkMel28): 83% | cell count (SkMel2): 87.8% | cell count (SkMel30): 74.1% | cell count (SkMel5): 67.8% | cell count (UACC257): 103% | cell count (UACC62): 66.2% | cell count (WM115): 89.7% | cell count (WM1716): 98.6% | cell count (WM1745): 104% | cell count (WM3526): 83.1%

Cn1sc(=O)n(Cc2ccccc2)c1=O + Cn1nnc2c(C(N)=O)ncn2c1=O [temozolomide] (partner dose 10 µM)
cell count (G361): 95.2% | cell count (IPC-298): 95.8% | cell count (IST-MEL1): 84% | cell count (LB2518-MEL): 96.9% | cell count (LOXIMVI): 88.1% | cell count (MEL-HO): 108% | cell count (MZ2-MEL): 111% | cell count (MeWo): 111% | cell count (RPMI7951): 62.6% | cell count (RVH-421): 77.4% | cell count (SkMel28): 40.2% | cell count (SkMel2): 109% | cell count (SkMel30): 87.4% | cell count (SkMel5): 83.6% | cell count (UACC257): 102% | cell count (UACC62): 75% | cell count (WM115): 79.8% | cell count (WM1716): 50.5% | cell count (WM1745): 80.9% | cell count (WM3526): 95%

CCCCCCCCCCCCCCCCCCOP(=O)([O-])OC1CC[N+](C)(C)CC1 [Perifosine] + O=C(O)c1ccc2c(c1)nc(Nc1cccc(Cl)c1)c1ccncc12 [CX4945] (partner dose 2 µM)
cell count (G361): 58.4% | cell count (IPC-298): 81.5% | cell count (IST-MEL1): 80.1% | cell count (LB2518-MEL): 101% | cell count (LOXIMVI): 49.5% | cell count (MEL-HO): 54.8% | cell count (MZ2-MEL): 73.7% | cell count (MeWo): 83.5% | cell count (RPMI7951): 25.1% | cell count (RVH-421): 92.4% | cell count (SkMel28): 70.3% | cell count (SkMel2): 52% | cell count (SkMel30): 68% | cell count (SkMel5): 77.4% | cell count (UACC257): 110% | cell count (UACC62): 76.2% | cell count (WM115): 94.8% | cell count (WM1716): 82.4% | cell count (WM1745): 77.3% | cell count (WM3526): 56%

CCCCCCCCCCCCCCCCCCOP(=O)([O-])OC1CC[N+](C)(C)CC1 [Perifosine] + OCc1c[nH]c2ccccc12 [Indole-3-carbinol] (partner dose 4 µM)
cell count (G361): 87.4% | cell count (IPC-298): 88.4% | cell count (IST-MEL1): 105% | cell count (LB2518-MEL): 91.5% | cell count (LOXIMVI): 174% | cell count (MEL-HO): 111% | cell count (MZ2-MEL): 94.7% | cell count (MeWo): 94.3% | cell count (RPMI7951): 37.5% | cell count (RVH-421): 91.5% | cell count (SkMel28): 96.8% | cell count (SkMel2): 93.8% | cell count (SkMel30): 92.4% | cell count (SkMel5): 107% | cell count (UACC257): 104% | cell count (UACC62): 77.2% | cell count (WM115): 88.8% | cell count (WM1716): 114% | cell count (WM1745): 95% | cell count (WM3526): 93%

Cn1sc(=O)n(Cc2ccccc2)c1=O + Nc1cccc2c1CN(C1CCC(=O)NC1=O)C2=O [lenalidomide] (partner dose 5 µM)
cell count (G361): 107% | cell count (IPC-298): 106% | cell count (IST-MEL1): 100% | cell count (LB2518-MEL): 90.2% | cell count (LOXIMVI): 96.1% | cell count (MEL-HO): 115% | cell count (MZ2-MEL): 111% | cell count (MeWo): 102% | cell count (RPMI7951): 95.4% | cell count (RVH-421): 78.9% | cell count (SkMel28): 88.6% | cell count (SkMel2): 88.4% | cell count (SkMel30): 108% | cell count (SkMel5): 83.9% | cell count (UACC257): 99.4% | cell count (UACC62): 99.9% | cell count (WM115): 108% | cell count (WM1716): 92.1% | cell count (WM1745): 84.6% | cell count (WM3526): 81.9%

Cn1sc(=O)n(Cc2ccccc2)c1=O + Cc1nc(Nc2ncc(C(=O)Nc3c(C)cccc3Cl)s2)cc(N2CCN(CCO)CC2)n1 [dasatanib] (partner dose 0.02 µM)
cell count (G361): 74.6% | cell count (IPC-298): 99.2% | cell count (IST-MEL1): 79.5% | cell count (LB2518-MEL): 87.4% | cell count (LOXIMVI): 14.3% | cell count (MEL-HO): 79.7% | cell count (MZ2-MEL): 63.5% | cell count (MeWo): 80.8% | cell count (RPMI7951): 33.8% | cell count (RVH-421): 63.8% | cell count (SkMel28): 69.6% | cell count (SkMel2): 87.8% | cell count (SkMel30): 103% | cell count (SkMel5): 62.3% | cell count (UACC257): 86.4% | cell count (UACC62): 68.1% | cell count (WM115): 65.3% | cell count (WM1716): 77.7% | cell count (WM1745): 42.7% | cell count (WM3526): 79.5%

C[C@@H](N)c1ccc(C(=O)Nc2ccnc3[nH]ccc23)cc1 + C#Cc1cccc(Nc2ncnc3cc(OCCOC)c(OCCOC)cc23)c1 [erlotinib] (partner dose 4 µM)
cell count (G361): 86.7% | cell count (IPC-298): 72.1% | cell count (IST-MEL1): 76.3% | cell count (LB2518-MEL): 89.2% | cell count (LOXIMVI): 75.6% | cell count (MEL-HO): 42.4% | cell count (MZ2-MEL): 43.3% | cell count (MeWo): 86.6% | cell count (RPMI7951): 43% | cell count (RVH-421): 66.4% | cell count (SkMel28): 72.7% | cell count (SkMel2): 110% | cell count (SkMel30): 85.4% | cell count (SkMel5): 56.1% | cell count (UACC257): 93.3% | cell count (UACC62): 67.7% | cell count (WM115): 66.4% | cell count (WM1716): 63.4% | cell count (WM1745): 41% | cell count (WM3526): 104%
